# According to the supplement of paper PMC3334620:
# In all, about 33,000 sequences were measured (“E-score (-0.5 to 0.5)”: median about -0.017, highest 2% from about 0.3 on). The list shows a part of the results.
# Target: T1, Sut1 (UniProt P53032)
# T1 sequence: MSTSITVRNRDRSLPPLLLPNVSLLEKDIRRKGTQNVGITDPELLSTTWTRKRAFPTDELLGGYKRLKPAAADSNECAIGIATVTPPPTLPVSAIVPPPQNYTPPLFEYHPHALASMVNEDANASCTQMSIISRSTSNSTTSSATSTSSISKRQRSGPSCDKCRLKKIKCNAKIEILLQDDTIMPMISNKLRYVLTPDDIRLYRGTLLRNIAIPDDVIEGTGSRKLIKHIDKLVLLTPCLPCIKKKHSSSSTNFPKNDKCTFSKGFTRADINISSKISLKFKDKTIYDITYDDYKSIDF
# Assay: PBM E-score (8-mer binding enrichment) (E-score (-0.5 to 0.5)); higher = stronger / more preferred TF binding; most listed sequences are background and not binding sites
# Details: protein concentration: 200 nM; construct: GST-full length
# Protocol: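 Universal 'all 10-mer' protein binding microarrays (Agilent AMADID 015681) probed with GST-tagged S. cerevisiae TFs (full-length or DBD) made by in vitro transcription/translation (PURExpress), about 100-200 nM. Bound TF was detected with fluorescent anti-GST. Each ungapped 8-mer (which stands for itself and its reverse complement) is scored by the PBM enrichment score (E-score), a modified Wilcoxon-Mann-Whitney statistic from -0.5 to +0.5, computed with the Universal PBM Analysis Suite. Scale: above 0.35 generally sequence-specific binding.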
row,Sequence,PBM E-score
1,TAGCTGGA,-0.235
2,AACTTTAA,0.325
3,ATGAAGAC,0.0692
4,AAGGATCA,0.0104
5,AAAAATTA,0.228
6,CTGTCACA,-0.0715
7,GAAAGCCA,0.0743
8,ATGCGTGC,-0.232
9,AATGTCCG,0.447
10,AGACTGGA,-0.0401
11,CACATGTG,-0.27
12,CATCAACA,0.0927
13,TGAGCTCA,0.0688
14,CCTGGCTA,-0.239
15,CAGGAGTC,0.0824
16,CACAAGGC,-0.171
17,AGTTACTG,-0.0347
18,CCCTCAGG,-0.22
19,ACTGAAAT,0.0923
20,ATGATGTC,0.167
21,AGAAATGG,-0.012
22,CGATCCGC,-0.128

row,Sequence,PBM E-score
1,ACTCGGGA,-0.0951
2,AGTATTAC,0.236
3,AACGTGGC,-0.115
4,CACAGAGA,-0.0672
5,AAGCCCAA,-0.0948
6,CAACCGGA,0.338
7,CAATCTAG,-0.0129
8,CCTTCCTC,-0.166
9,CACTAACG,-0.17
10,CGGTAAAA,0.225
11,GACCTGCC,-0.308
12,GAATATTC,0.232
13,GCGTGACC,-0.22
14,ACCCAGTG,-0.262
15,AAGGAAAC,0.0287
16,GAATCCAA,0.133
17,GACGGGAC,-0.26
18,ACACACTA,0.0857
19,ATCCAACG,-0.145
20,AATGCATT,0.219
21,CAGGTTAC,0.0828
22,AACCATGA,0.112

row,Sequence,PBM E-score
1,CGGAGAGA,0.317
2,AGGCGAAA,-0.133
3,TAGCGATA,-0.0115
4,CAGGATGG,-0.222
5,GGGCGAAC,-0.118
6,CGGGCGAA,0.00055
7,GTCGGTTA,0.0871
8,ACATTGGC,-0.21
9,CATCTTCC,0.169
10,ACCGTCGT,-0.0529
11,CACCGGAC,0.409
12,CTATTTCA,0.179
13,CTGGGCTA,-0.198
14,AAATCATA,0.151
15,AGCGACGG,-0.00842
16,ACGAGCAG,-0.214
17,CGCCAGGA,-0.196
18,AAGCGAAC,0.0859
19,ATACGACC,-0.122
20,CGCGCTCA,-0.0778
21,GAATTGCC,-0.145
22,ATATTCCC,0.116

row,Sequence,PBM E-score
1,ATCAACTA,0.215
2,GCAAAGGA,0.0236
3,ACATACCC,0.05
4,CAAGAGGA,-0.0659
5,AAAGCAGA,0.0353
6,GACCAACC,-0.0931
7,CGCCAGCG,-0.0723
8,AAGGTTTA,0.094
9,ACATGATC,0.116
10,TTGTGAAA,0.137
11,CACCCTGC,-0.0761
12,ACGGAAGC,0.101
13,TACCTCAA,0.0794
14,GCATTCCC,-0.228
15,ATCTTCTA,0.00445
16,AAGGGTCA,0.00277
17,GATTTGGA,0.167
18,CATAAATC,0.0931
19,GAGTAACA,0.181
20,CCGGGAAA,0.149
21,AAAGCATG,-0.0268
22,ATTATGCA,0.0357

row,Sequence,PBM E-score
1,GGGAGGGA,-0.103
2,GCTCTCCC,-0.231
3,AAAATATT,0.206
4,ATGTCCGA,0.45
5,AATGGGGC,-0.243
6,AGTGGACC,-0.278
7,CAGGGATG,-0.12
8,CTGTAACC,0.112
9,CATTAAAC,0.0995
10,CGATTTAA,0.242
11,GGATTTGA,-0.0473
12,CGTCCCCA,-0.14
13,CCGCTATC,0.0553
14,AATACGCC,0.0185
15,AAAGCACT,0.121
16,CTCTGCAC,-0.252
17,GGGAATAA,0.233
18,ATAAAAAG,0.241
19,AAAGCGAC,0.0737
20,CCTATACA,-0.0542
21,ACGGGGGA,-0.0258
